About 14,000 (4.5%) of roughly 310,000 compounds showed an effect of 50% or more. Effects have a minus sign here. The list shows a part of the results.
These compounds were tested against human ether-à-go-go-related gene (hERG) potassium channel (human, UniProt Q12809) (assay: primary screen, population patch clamp on CHO cells stably expressing hERG).
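Further: peak tail current of the secondary pulse compared with the same well before compound.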

Chain of human ether-à-go-go-related gene (hERG) potassium channel (Q12809 whole entry, looked up): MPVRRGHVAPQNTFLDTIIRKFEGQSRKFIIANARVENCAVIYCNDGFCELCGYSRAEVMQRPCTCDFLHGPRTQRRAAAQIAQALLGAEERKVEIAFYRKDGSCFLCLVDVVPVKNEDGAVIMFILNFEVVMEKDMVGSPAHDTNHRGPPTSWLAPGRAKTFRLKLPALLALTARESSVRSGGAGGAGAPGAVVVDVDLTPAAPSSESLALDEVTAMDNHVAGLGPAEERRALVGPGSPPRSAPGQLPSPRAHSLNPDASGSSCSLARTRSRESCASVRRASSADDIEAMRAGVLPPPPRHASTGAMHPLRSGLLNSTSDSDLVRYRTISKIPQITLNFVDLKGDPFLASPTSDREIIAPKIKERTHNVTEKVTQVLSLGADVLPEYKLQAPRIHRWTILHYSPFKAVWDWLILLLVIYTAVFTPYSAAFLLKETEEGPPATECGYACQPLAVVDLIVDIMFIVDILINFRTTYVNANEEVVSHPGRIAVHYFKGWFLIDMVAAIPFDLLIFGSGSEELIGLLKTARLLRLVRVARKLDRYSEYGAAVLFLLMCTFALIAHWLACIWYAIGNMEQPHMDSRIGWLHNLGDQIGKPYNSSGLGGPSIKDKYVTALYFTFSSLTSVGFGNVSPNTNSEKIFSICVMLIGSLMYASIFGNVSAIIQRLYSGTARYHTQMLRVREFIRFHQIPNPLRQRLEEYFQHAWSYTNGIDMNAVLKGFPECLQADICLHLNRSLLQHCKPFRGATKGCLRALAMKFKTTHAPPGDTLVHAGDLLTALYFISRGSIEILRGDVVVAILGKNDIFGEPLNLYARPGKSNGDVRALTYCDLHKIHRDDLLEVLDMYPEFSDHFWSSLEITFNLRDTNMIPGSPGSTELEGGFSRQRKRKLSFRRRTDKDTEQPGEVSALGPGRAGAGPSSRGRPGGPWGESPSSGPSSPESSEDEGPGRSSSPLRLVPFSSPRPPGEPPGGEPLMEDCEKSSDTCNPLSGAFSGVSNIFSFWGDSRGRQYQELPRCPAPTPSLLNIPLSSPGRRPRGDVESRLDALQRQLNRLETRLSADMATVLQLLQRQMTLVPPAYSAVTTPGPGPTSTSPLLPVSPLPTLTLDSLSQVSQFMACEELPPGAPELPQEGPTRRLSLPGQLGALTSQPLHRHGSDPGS

| SMILES | hERG current change (%, negative = inhibition) at 10uM [%] |
| --- | --- |
| Cc1ccn2cc(CCNC(=O)COc3ccccc3)nc2c1 | -34.3 |
| Cc1ccc(-c2ccc(/C=N/O)o2)cc1[N+](=O)[O-] | 8.19 |
| CCS(=O)(=O)Nc1cccc(C2=NN(C(=O)c3ccco3)C(c3ccco3)C2)c1 (centres unmarked) | -4.98 |
| Cc1c(C)n(-c2ccccc2)c2ncnc(NCCN(C)C)c12 | -4.04 |
| O=C(NNc1c(Cl)cccc1Cl)c1cccs1 | -7.95 |
| O=C(C1CC1)N1CCc2cc(Br)cc(S(=O)(=O)N3CCOCC3)c21 | -1.21 |
| CC(=O)Nc1ccc(S(=O)(=O)NCCC(=O)OCc2nnc(-c3ccccc3)o2)cc1 | -16.5 |
| Cc1ccc(N=Nc2c(C)[nH]n(-c3ccccc3)c2=O)cc1 | -8.57 |
| O=C(NCC1COc2ccccc2O1)c1ccco1 (centres unmarked) | -5.32 |
| COC(=O)C(NNc1ccccc1)(NC(=O)c1cccc(F)c1)C(F)(F)F (centres unmarked) | 13 |
| CC(=O)NC(=S)Nc1ccccc1N1CCCCC1 | -8.02 |
| Cc1ccc(-n2cc(CN(C)Cc3nccn3C)c(-c3cccc(C)c3)n2)cc1 | -16.1 |
| Cn1nc(OC(=O)Nc2cccc(Cl)c2)cc1C(F)(F)F | 7.93 |
| Cc1ccccc1OCCn1cc(C(=S)N2CCCC2)c2ccccc21 | 9.04 |
| O=C(O)CC1(CC(=O)Nc2ccc(F)cc2F)CCCCC1 | -15.3 |
| CC(=O)Nc1ccc(S(=O)(=O)n2nc(C)cc2C)cc1 | 20.4 |
| CSc1nc(NCC(C)O)c2c3c(sc2n1)CN(C)CC3 (centres unmarked) | -42 |
| Cc1ccc(Cn2nnc3c(=O)[nH]c(C4CCN(S(=O)(=O)c5ccc(C)cc5)CC4)nc32)cc1 | -26.5 |
| COc1ccccc1-n1cnnc1SCC(=O)Nc1cccc(S(=O)(=O)N2CCCCC2)c1 | -28.7 |
| Cc1ccc(N)cc1S(=O)(=O)N(C)C | 20.4 |
| Cc1nc(C)c(C(=O)OCC(=O)NCc2ccccc2)s1 | 7.46 |
| Cc1noc(C)c1-c1ccc2ncnc(NC(C)c3ccco3)c2c1 (centres unmarked) | -8.56 |

| SMILES | hERG current change (%, negative = inhibition) at 10uM [%] |
| --- | --- |
| CC(c1ccncc1)C(C)c1ccncc1 (centres unmarked) | 9.84 |
| Cc1cccc(-c2nc(CS(=O)CC(=O)NCCCSC3CCCCC3)c(C)o2)c1 (centres unmarked) | -29.4 |
| CCC(C)(C)C1CCC2(CC1)NC(=O)N(CC(=O)N(C)Cc1ccc(OC(F)F)cc1)C2=O (centres unmarked) | 1.47 |
| CC(=O)Nc1cccc(C(=O)OCC(=O)NC2CCCCCCC2)c1 | 6.7 |
| CC(=O)C(C)Oc1cc(C)cc2oc(=O)c(C)c(C)c12 (centres unmarked) | 3.13 |
| O=C(c1cc(-c2ccc(O)cc2)on1)N1CCCC1 | 2.56 |
| Cc1cc(C(=O)COC(=O)c2n[nH]c(=O)c3ccccc23)c(C)n1C | 15.3 |
| Cc1cc(CNC(=O)CCc2nnc(CCCc3ccccc3)o2)nn1C | 23 |
| CC(=O)N1CCN(c2ccc(NC(=O)/C=C/c3ccccc3)cc2)CC1 | -32.8 |
| O=C(CSc1nc2[nH]ncc2c(=O)n1-c1ccccc1)NCCc1ccccc1 | 41.6 |
| Cc1ccccc1Nc1ncnc2c1cnn2Cc1ccccc1 | -10.8 |
| CN(C)/C=C1\C(=O)Nc2ccccc21 | 13.3 |
| O=C(CSc1nnc(-c2ccncc2)n1-c1ccccc1)Nc1ccc(C(=O)O)cc1 | 25.5 |
| COc1ccc(OC)c(S(=O)(=O)N2CCN(C(=O)NC3CCCCC3)CC2)c1 | -12.6 |
| Cc1ccccc1S(=O)(=O)Cc1ccc(C(=O)NC2CCCC2)o1 | -6.44 |
| COc1ccccc1C1C(C(=O)NCc2ccccc2)=C(C)Nc2ncnn21 (centres unmarked) | 4.42 |
| CCC1(c2ccccc2)NC(=O)N(CC(=O)Nc2ccc3c(c2)OCO3)C1=O (centres unmarked) | -6.09 |
| N#Cc1ccc(NC(=O)COC(=O)C2=COCCO2)cc1 | 4.19 |
| COc1ccc2cc(C(=O)C3CCCN(Cc4cccc(C)n4)C3)ccc2c1 (centres unmarked) | -66.5 |
| O=C(OCC(=O)N1CCc2ccccc2C1)c1cccc([N+](=O)[O-])c1 | -25.5 |
| O=C(Nc1ccccc1)c1c(O)[nH]c(=O)[nH]c1=O | 8.67 |
| Cc1ccc(S(=O)(=O)N2CCCCC2)cc1NC(=O)CSc1ncnc2ccccc12 | -36.2 |

From article PMC4336329 (PLoS ONE, 2015)
